# This is one part of the list.
# B1: MGL2 (Mus musculus), Q8JZN1 (protein)
# chain: MTMRYENFQNLEREEKNQEMRNGDKKGGMESPKFALIPSQSFLWRILSWTHLLLFSLGLSLLLLVVISVIGSQNSQLRRDLGTLRAILDNTTSKIKAEFQSLDSRADNFEKGISSLKVDVEDHRQELQAGRDLSQKVTSLESTLEKREQALKTDLSDLTDHVQQLETDLKALTCQLANLKNNGSEVACCPLHWTEHEGSCYWFSESEKSWPEADKYCRLENSHLVVVNSLEEQNFLQNRLANVLSWMGLTDQNGPWRWVDGTDFDKGFKNWRPLQPDNWHGHMLGGGEDCAHFSYDGRWNDDVCQRHYHWICETELGKASSAHSPQLIASVP
# Tests used:
# Experiment in all cases: glycan array binding signal (z-score within array); higher = stronger binding
# Details in all cases: glycan notation: IUPAC condensed, linker removed
# [1] = target: Fuc(a1-2)Gal(b1-4)[Fuc(a1-3)]GlcNAc
# Outline: (§1)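 Arrays were curated from the Consortium for Functional Glycomics database, 3228 in total, and kept only where the protein sequence was available. Binding is expressed as a within-array Z-score. This score was averaged across arrays of the same protein sequence at different concentrations or buffers and across linkers, and negative values can be read as non-binding.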
# [2] = target: Fuc(a1-2)Gal(b1-4)[Fuc(a1-3)]GlcNAc(b1-2)Man(a1-3)[Fuc(a1-2)Gal(b1-4)[Fuc(a1-3)]GlcNAc(b1-2)Man(a1-6)]Man(b1-4)GlcNAc(b1-4)[Fuc(a1-6)]GlcNAc
# Outline: as §1
# [3] = target: Fuc(a1-2)Gal(b1-4)[Fuc(a1-3)]GlcNAc(b1-2)[Fuc(a1-2)Gal(b1-4)[Fuc(a1-3)]GlcNAc(b1-4)]Man(a1-3)[Fuc(a1-2)Gal(b1-4)[Fuc(a1-3)]GlcNAc(b1-2)Man(a1-6)]Man(b1-4)GlcNAc(b1-4)GlcNAc
# Outline: as §1
# [4] = target: Fuc(a1-2)Gal(b1-4)[Fuc(a1-3)]GlcNAc(b1-3)Gal(b1-4)[Fuc(a1-3)]GlcNAc
# Outline: as §1
# [5] = target: Fuc(a1-2)Gal(b1-4)[Fuc(a1-3)]GlcNAc(b1-3)Gal(b1-4)[Fuc(a1-3)]GlcNAc(b1-3)Gal(b1-4)[Fuc(a1-3)]GlcNAc
# Outline: as §1
# [6] = target: Fuc(a1-2)Gal(b1-4)[Fuc(a1-3)]GlcNAc(b1-3)GalNAc
# Outline: as §1
# [7] = target: Fuc(a1-2)Gal(b1-4)[Fuc(a1-3)]GlcNAc(b1-3)[Neu5Ac(a2-6)Gal(b1-4)GlcNAc(b1-6)]Gal(b1-4)Glc
# Outline: as §1
# [8] = target: Fuc(a1-2)Gal3S(b1-4)GlcNAc
# Outline: as §1
# [9] = target: Fuc(a1-2)Gal6S(b1-3)GlcNAc
# Outline: as §1
# [10] = target: Fuc(a1-2)Gal6S(b1-3)GlcNAc6S
# Outline: as §1
# [11] = target: Fuc(a1-2)Gal6S(b1-4)Glc
# Outline: as §1
# [12] = target: Fuc(a1-2)Gal6S(b1-4)Glc6S
# Outline: as §1
# [13] = target: Fuc(a1-2)[Gal(a1-3)]Gal
# Outline: as §1
# [14] = target: Fuc(a1-2)[Gal(a1-3)]Gal(b1-3)GalNAc
# Outline: as §1
# [15] = target: Fuc(a1-2)[Gal(a1-3)]Gal(b1-3)GalNAc(b1-3)Gal(a1-4)Gal(b1-4)Glc
# Outline: as §1
# [16] = target: Fuc(a1-2)[Gal(a1-3)]Gal(b1-3)GlcNAc
# Outline: as §1
# [17] = target: Fuc(a1-2)[Gal(a1-3)]Gal(b1-3)GlcNAc(b1-2)Man(a1-3)[Fuc(a1-2)[Gal(a1-3)]Gal(b1-3)GlcNAc(b1-2)Man(a1-6)]Man(b1-4)GlcNAc(b1-4)GlcNAc
# Outline: as §1
# [18] = target: Fuc(a1-2)[Gal(a1-3)]Gal(b1-3)GlcNAc(b1-2)Man(a1-3)[Fuc(a1-2)[Gal(a1-3)]Gal(b1-3)GlcNAc(b1-2)Man(a1-6)]Man(b1-4)GlcNAc(b1-4)[Fuc(a1-6)]GlcNAc
# Outline: as §1
# [19] = target: Fuc(a1-2)[Gal(a1-3)]Gal(b1-3)GlcNAc(b1-3)GalNAc
# Outline: as §1
# [20] = target: Fuc(a1-2)[Gal(a1-3)]Gal(b1-3)GlcNAc(b1-6)GalNAc
# Outline: as §1
# [21] = target: Fuc(a1-2)[Gal(a1-3)]Gal(b1-4)Glc
# Outline: as §1
# [22] = target: Fuc(a1-2)[Gal(a1-3)]Gal(b1-4)GlcNAc
# Outline: as §1
# [23] = target: Fuc(a1-2)[Gal(a1-3)]Gal(b1-4)GlcNAc(b1-2)Man
# Outline: as §1
# [24] = target: Fuc(a1-2)[Gal(a1-3)]Gal(b1-4)GlcNAc(b1-2)Man(a1-3)[Fuc(a1-2)[Gal(a1-3)]Gal(b1-4)GlcNAc(b1-2)Man(a1-6)]Man(b1-4)GlcNAc(b1-4)GlcNAc
# Outline: as §1
# [25] = target: Fuc(a1-2)[Gal(a1-3)]Gal(b1-4)GlcNAc(b1-2)Man(a1-3)[Fuc(a1-2)[Gal(a1-3)]Gal(b1-4)GlcNAc(b1-2)Man(a1-6)]Man(b1-4)GlcNAc(b1-4)[Fuc(a1-6)]GlcNAc
# Outline: as §1
# [26] = target: Fuc(a1-2)[Gal(a1-3)]Gal(b1-4)GlcNAc(b1-3)GalNAc
# Outline: as §1
# [27] = target: Fuc(a1-2)[Gal(a1-3)]Gal(b1-4)GlcNAc(b1-3)[Fuc(a1-2)[Gal(a1-3)]Gal(b1-4)GlcNAc(b1-6)]GalNAc
# Outline: as §1
# [28] = target: Fuc(a1-2)[Gal(a1-3)]Gal(b1-4)GlcNAc(b1-6)GalNAc
# Outline: as §1
# [29] = target: Fuc(a1-2)[Gal(a1-3)]Gal(b1-4)[Fuc(a1-3)]Glc
# Outline: as §1
# [30] = target: Fuc(a1-2)[Gal(a1-3)]Gal(b1-4)[Fuc(a1-3)]GlcNAc
# Outline: as §1
# [31] = target: Fuc(a1-2)[Gal(a1-3)]Gal(b1-4)[Fuc(a1-3)]GlcNAc(b1-3)GalNAc
# Outline: as §1
# [32] = target: Fuc(a1-2)[Gal(a1-4)]Gal(b1-4)GlcNAc
# Outline: as §1
# [33] = target: Fuc(a1-2)[GalNAc(a1-3)]Gal
# Outline: as §1
# [34] = target: Fuc(a1-2)[GalNAc(a1-3)]Gal(b1-3)GalNAc(a1-3)[Fuc(a1-2)]Gal(b1-4)GlcNAc
# Outline: as §1
# [35] = target: Fuc(a1-2)[GalNAc(a1-3)]Gal(b1-3)GalNAc(b1-3)Gal(a1-4)Gal(b1-4)Glc
# Outline: as §1
# [36] = target: Fuc(a1-2)[GalNAc(a1-3)]Gal(b1-3)GlcNAc
# Outline: as §1
# [37] = target: Fuc(a1-2)[GalNAc(a1-3)]Gal(b1-3)GlcNAc(b1-2)Man(a1-3)[Fuc(a1-2)[GalNAc(a1-3)]Gal(b1-3)GlcNAc(b1-2)Man(a1-6)]Man(b1-4)GlcNAc(b1-4)GlcNAc
# Outline: as §1
# [38] = target: Fuc(a1-2)[GalNAc(a1-3)]Gal(b1-3)GlcNAc(b1-2)Man(a1-3)[Fuc(a1-2)[GalNAc(a1-3)]Gal(b1-3)GlcNAc(b1-2)Man(a1-6)]Man(b1-4)GlcNAc(b1-4)[Fuc(a1-6)]GlcNAc
# Outline: as §1
binder,measurement,setting,value
B1,glycan array binding signal (z-score),[1],-0.225
same,glycan array binding signal (z-score),[2],0.025
same,glycan array binding signal (z-score),[3],-0.047
same,glycan array binding signal (z-score),[4],-0.148
same,glycan array binding signal (z-score),[5],-0.198
same,glycan array binding signal (z-score),[6],-0.255
same,glycan array binding signal (z-score),[7],-0.136
same,glycan array binding signal (z-score),[8],-0.132
same,glycan array binding signal (z-score),[9],-0.223
same,glycan array binding signal (z-score),[10],0.028
same,glycan array binding signal (z-score),[11],-0.142
same,glycan array binding signal (z-score),[12],-0.022
same,glycan array binding signal (z-score),[13],-0.115
same,glycan array binding signal (z-score),[14],-0.218
same,glycan array binding signal (z-score),[15],0.126
same,glycan array binding signal (z-score),[16],-0.128
same,glycan array binding signal (z-score),[17],-0.255
same,glycan array binding signal (z-score),[18],-0.096
same,glycan array binding signal (z-score),[19],-0.183
same,glycan array binding signal (z-score),[20],0.323
same,glycan array binding signal (z-score),[21],-0.222
same,glycan array binding signal (z-score),[22],-0.162
same,glycan array binding signal (z-score),[23],-0.22
same,glycan array binding signal (z-score),[24],-0.129
same,glycan array binding signal (z-score),[25],-0.164
same,glycan array binding signal (z-score),[26],-0.286
same,glycan array binding signal (z-score),[27],-0.22
same,glycan array binding signal (z-score),[28],-0.058
same,glycan array binding signal (z-score),[29],-0.146
same,glycan array binding signal (z-score),[30],-0.061
same,glycan array binding signal (z-score),[31],-0.252
same,glycan array binding signal (z-score),[32],-0.12
same,glycan array binding signal (z-score),[33],-0.218
same,glycan array binding signal (z-score),[34],-0.197
same,glycan array binding signal (z-score),[35],-0.149
same,glycan array binding signal (z-score),[36],-0.21
same,glycan array binding signal (z-score),[37],-0.276
same,glycan array binding signal (z-score),[38],-0.192

# — the supplement of paper PMC8728848
